Test results published in article PMC10385607.

Biological target: Murine ALCAM (mouse) (UniProt Q61490)
Chain of UniProt Q61490 (Q61490 28-527): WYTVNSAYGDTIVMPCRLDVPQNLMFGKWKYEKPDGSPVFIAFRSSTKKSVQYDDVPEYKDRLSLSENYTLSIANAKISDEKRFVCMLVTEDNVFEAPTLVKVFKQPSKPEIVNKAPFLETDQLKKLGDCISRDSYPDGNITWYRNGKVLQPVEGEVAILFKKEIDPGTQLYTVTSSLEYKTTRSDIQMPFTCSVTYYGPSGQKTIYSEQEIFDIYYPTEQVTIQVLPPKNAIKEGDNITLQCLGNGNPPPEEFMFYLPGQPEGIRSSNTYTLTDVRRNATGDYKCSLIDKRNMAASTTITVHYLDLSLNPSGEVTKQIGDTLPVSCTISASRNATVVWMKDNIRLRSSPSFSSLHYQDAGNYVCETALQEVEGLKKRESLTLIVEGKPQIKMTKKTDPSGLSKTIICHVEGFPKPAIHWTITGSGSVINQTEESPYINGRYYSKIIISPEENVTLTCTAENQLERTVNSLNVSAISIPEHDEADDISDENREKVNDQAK

IC50 of DC transmigration across LEC monolayers (DC TM; blocks ALCAM–ALCAM between DCs and LECs)	Binder
0.44 nM	IF8-Fc (Fc fusion) VH: [no letters for about 100 residues]GYVAFDYWGQGTLVTVSS VL: SSELTQDPAVSVALGQTVRITCQGDSLRSYYASWYQQKPGQAPVLVIYGKNNRPSGIPDRFSGSSSGNTASLTITGAQAEDEADYYCNSSPPFSAEVVFGGGTKLTVL
0.86 nM	db V2D7 (protein) VH: [no letters for about 100 residues]GYVAFDYWGQGTLVTVSS VL: SSVLTQPPSVSVAPGQTARITCQGDSLRSGYASWYQQKPGQAPVLVVYGKNNRPSGIPERFSGSSSGNTATLTISRVEAGDEADYYCNSSPPFSAEVVFGGGTKLTVL
